The source gives no read counts; variants with many changes may rest on few reads.

B1: CPEB3 Ribozyme (parent)
chain: UAACAGGGGGCCACAGCAGAAGCGUUCACGUCGCAGCCCCUGUCAGAUUCUGGUGAAUCUGCGAAUUCUGCUGUAUAUCUC

In this data set the parent is B1. Briefly: self-cleavage, relative activity (ratio to wild type); higher = more cleavage; in vitro, sequencing. In outline:
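CPEB3 self-cleaving ribozyme mutant libraries were made by rounds of error-prone PCR, barcoded, and transcribed in vitro with T7 RNA polymerase for 5 hours at 37°C. Cleavage occurred during transcription and a 15 min DNase I step before EDTA stop. RNAs were reverse transcribed with template switching and Illumina-sequenced, with DNA sequencing mapping barcodes to variants. Relative activity is the variant's cleaved/total read fraction divided by wild type's (minimum 5 reads), averaged across three batches.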
In the case of UAACAGGGGGCUACAGCAGAAGCGUUCACACCGCGGCCCCUGUCUGAUUCUGGUGAAUCUGCGAAUUCUGCUGUAUAUCUC [C12U G30A U31C A35G A45U], the self-cleavage was 0.1. The same measure for UAACAGGGGGCUACAGCAGAAGCGUUCACGUCGCAGCCCCUGUCAGAUUCUGGUGAAUGCGCGAAUUCUGCUGUGUAUCUC [C12U C59G U60C A75G]: 0.33; for UAACAGGGGGCUACAGCAGAAGCGUUCACGUCGCAGCCUCUGUCAGAUUCAGGUGAAUCUGCGAAUUCUGCUAUAUAUCUC [C12U C39U U51A G73A]: 1.33. As to UAACAGGGGGCUACAGCAGAAGCGUCCACGUCGCAGCCCCUGUCAGUUUCUGGUGAAUCUGCGAAUUCUGCUGUAUAUCUC [C12U U26C A47U], the self-cleavage worked out at 0.18. In the case of UAACAGGGGGCUACAGCAGAAGCGUUCACGUCGCAGCCCUUGUCAGACUCUGGUGAAUCAGCGAAUUCUGCUGUAUAUCUC [C12U C40U U48C U60A], the self-cleavage was found to be 0.23. With UAACAGGGGGCUACAACAGAAGCGUUCACGUCGCAGCCCCUGUCAGAUUCUGGUGAAUCAGCGAACUCUGCUGUAUAUCUC [C12U G16A U60A U66C] the figure was 0.12; with UAACAGGGGGCUACAGCAGAAGCGUUCACGUCGCAGCCCCUGUCAGAUUCUGGUGAAUCUGCGAUUUCUGCUGCGUAUCUC [C12U A65U U74C A75G], 0.85.

In the case of UAACAGGGGGCUACAGCAGAAGCGUUCACGCCGCGGCCCCUGCCAGAUUCUGGUGAGUCUGCGAACUCCGCUGUAUAUCUC [C12U U31C A35G U43C A57G U66C U69C], the self-cleavage worked out at 0.09.

As to UAACAGGGGGCUACAGCAGAAGCGUUCACGUCGCAGCCCCUGUCAGACUCUGGCGAAUCUGCGAAUUCCACUGUACAUCUC [C12U U48C U54C U69C G70A U76C], the self-cleavage turned out to be 0.13. In the case of UAACAGGGGGCUACAGCAGAAGCGUUUACCUCGCAGCCCCUGUCAGAUUCUGGUGAAUCUGCGAAUUCUGCUGUAUAUCUC [C12U C27U G30C], the self-cleavage came out at 0.22. With UAACAGGGGGCUACAGCAGAAGCGUUCACGUCGCAGCCCCUGUCAGAUUCUGGUGGAUCUGCGAAUUCAGCCGUAUAUCUC [C12U A56G U69A U72C] the figure was 0.69; with UAACAGGGGGCUACAGCAGAAGCGCUCACGACGCAGCCCCUGUCAGAUUCUGGGGAAUCUGCGAAUUCUGCUGUAUAUCUC [C12U U25C U31A U54G], 0.07; with UAACAGGGGGCUACAGCAGAAGCGUUCACGUCGCAGCCCCUGUCAGAUUCUGGUGAAUCUGUGAAUUCCGCUGUAUAUCUC [C12U C62U U69C], 0.39. With UAACAGGGGGCUACAGCAGAAGCGUUCACGUCGCAGCCCCUGUCAAAUUCUGGUGAAUCUGCGAAUUCUGCUGUAUACCUC [C12U G46A U78C] the figure was 0.27; with UAACAGGGGGCUACAGCAGAAGCGUCCGCGUCGCAGCCCCUGUCAGAUUCUGGUGAAUCAGCGAAUACUGCUGUAUAUCUC [C12U U26C A28G U60A U67A], 0.05. With UAACAGGGGGCUACAGCAGAAGCGUCCACGCCGCAGCCCCUGUCGGAUUCUGGUGAAUCCGCGAAUUCUGCUGAAUAUCUC [C12U U26C U31C A45G U60C U74A] the figure was 0.47; with UAACAGGGGGCUACAGCAGAAGCGCUCACGUCGCAGCCCCUGUCAGAUUUUGGUGAAUCUGCGAAUUCUGCUGUAUAUCUC [C12U U25C C50U], 0.29; with UAACAGGGGGCUACAGCAGAAGCGUUCACGCCGCAGCCCCUGUCAGAUUCUGGUGAAUCUGCGGAUUCUGCUGUAUGUCUC [C12U U31C A64G A77G], 0.7. Turning to UAACAGGGGGCUACAGCAGAAGCGUUCACGGCGUAGCCCCUGUCAGAUUCUGGUGAAUCUGCGAAUUCUGCUGUAUAUCUC [C12U U31G C34U], the self-cleavage was found to be 0.1. In the case of UAACAGGGGGCUACAUCAGAAGCGUUCACGUCGCAGCCCCUGUCAGAUUCUGGUGAAUCUGCGAAUUCUGCUGUAAAUCUC [C12U G16U U76A], the self-cleavage was 1. The same measure for UAACAGGGGGCUACAGCAGAAGCGUCCACGUCGCAGCCCCUGUCAGAUUCUGGUGAAUCUGCGAAUUCUGCCGCAUAUCUC [C12U U26C U72C U74C]: 1.16. As for UAACAGGGGGCUACAGCAGAAGAGUUCACGUCGCAGCCCCUGUCAGAUUCUGGGGAAUCUGCGAAUUCUGCUGUAUUCCUC [C12U C23A U54G A77U U78C], the self-cleavage amounted to 0.15. Turning to UAACAGGGGGCUACAGCAGAAGCGUUCACGUCGCAGCCCCUGUCAGAUUCUGGUGAGUCUGCGAAUUCCGCUGUAUAUCUC [C12U A57G U69C], the self-cleavage turned out to be 1.03. The same measure for UAACAGGGGGCUACAGCAGAAGCGUUCACGUCGCAGCCACUGUCAGAUUCUGGUGAAUCUGCGAAUUCUACUGUAUAUCUC [C12U C39A G70A]: 0.11.

With UAACAGGGGGCUACAGCAGAAGCGCUCCCGUCGCAGCCCCCGACAGAUUCUGGAGAAUCUGCGAAUUCUGCUGUAUAUCUC [C12U U25C A28C U41C U43A U54A], the self-cleavage is 0.11. The same measure for UAACAGGGGGCUACAGCAGAAGCGUUCACGUCGCAGCCCCUGUCAGAUUCUAGUGUAUCCGCGAAUUCUGCUGUAUAUCUC [C12U G52A A56U U60C]: 0.73; for UAACAGGGGGCUACAGCAGAAGCGUUCACGUCGCAGCCCCUGUCAGAUUCUGGUGAAUCUGCGGAUUCUGCUGUAUAUCCC [C12U A64G U80C]: 1.15; for UAACAGGGGGCUACAGCAGAAGCACUCGCGUCGCAGCCCCUGUCAGAUCCUGGUGAAUCUGCGAAUUCUGCUGUAAGUCUC [C12U G24A U25C A28G U49C U76A A77G]: 0.05. The same measure for UAACAGGGGGCUACAGCAGAAGCGUUCACGUCGCAGCCCCCGUCAGAUUCUGGUGAAUCUGCGAAGUCUGCUGUAUAUCUC [C12U U41C U66G]: 1.11. As to UAACAGGGGGCUACAGCAGAAGCGUCCACGUCGCAGCCCCUGUCAGAUUCUGGUGAAGCUGCGAAUUCUGCUGUAUUUCUC [C12U U26C U58G A77U], the self-cleavage stood at 0.27. With UAACAGGGGGCUAUAGCAGAAGCGUUCACGUCGCAGCCCCUGACAGAUUCUGGUGAAUCUGCGAAUUCUGCUGUAUAUCUC [C12U C14U U43A], the self-cleavage was determined as 1.15.

Consider UAACAGGGGGCUACAGCAGAAGCGUUCACGCCGCAGCCCCUGUCAGAUUCUGAUGAAUCUGCGAAUUCUGCCGUAUAUCUC [C12U U31C G53A U72C], for which the self-cleavage was found to be 1.23. Take UAACAGGGGGCUACAGCAGAAGCGUCCACGUCGCAGCCCGUGUCAGAUUCUGGUGAAUCUGCGAAUUCUGCUGUAUAUCUC [C12U U26C C40G]: the self-cleavage was found to be 0.1. UAACAGGGGGCUACAGCAGAAGCUUUCGCGUCACAGCCCCUGUCAGAUUCUGGUGAAUCUGCGAAUUCUGCUGUAUAUCUC [C12U G24U A28G G33A]: the self-cleavage turned out to be 0.05.
